Reference: PubChem BioAssay AID602310 (National Center for Advancing Translational Sciences (NCATS), 2012)
Hit rate of the full screen: of about 410,000 compounds, about 310 (0.076%) were called active. This list was built around the results that the source calls inconclusive (neither active nor inactive); the mix of calls is not that of the screen. The call rests on the fitted dose curve; in most records, active means well fitted curve in the direction sought with a large enough effect; inconclusive means small, poorly fitted or top-dose-only effect; inactive means flat fitted curve, though single readings scatter. Where the call is inconclusive, the potency comes from a doubtful curve fit.

molecular target: DNA dC->dU-editing enzyme APOBEC-3G (Homo sapiens) (UniProt Q9HC16); test: qHTS for Inhibitors of Vif-A3G Interactions: qHTS; settings: HeLa A3G-eYFP + Vif (tagged APOBEC3G with the HIV-1 protein that degrades it), YFP fluorescence, overnight; series mostly up to 46.1 µM; activity, negative = active: at the top concentration; further: nearly all actives have a fitted effect of over 60% in size;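 on activity, negative = active: hits raise eYFP signal because A3G escapes Vif-driven loss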
UniProt Q9HC16, sequence (Q9HC16 whole entry, looked up): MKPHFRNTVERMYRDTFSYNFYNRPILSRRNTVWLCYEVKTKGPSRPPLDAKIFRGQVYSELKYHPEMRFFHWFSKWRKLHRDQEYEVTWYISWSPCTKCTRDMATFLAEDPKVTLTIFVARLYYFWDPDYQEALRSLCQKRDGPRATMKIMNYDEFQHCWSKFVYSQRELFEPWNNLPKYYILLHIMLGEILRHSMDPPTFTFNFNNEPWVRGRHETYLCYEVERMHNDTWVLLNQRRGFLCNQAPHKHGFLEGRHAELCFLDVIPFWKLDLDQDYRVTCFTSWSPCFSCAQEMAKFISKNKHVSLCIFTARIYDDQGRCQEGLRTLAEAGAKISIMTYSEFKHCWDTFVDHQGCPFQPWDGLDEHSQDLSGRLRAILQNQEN
How it was run: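 Read-out is eYFP fluorescence (Ex 488/Em 500-530) from Vif-expressing HeLa A3G-eYFP cells; more signal means A3G escaped Vif-mediated degradation. Cells plated overnight, compound pinned in, incubated overnight at 37 deg C.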
On the % scale 0 is the no-effect control and ±100 the full control effect; potency means the concentration at half of the fitted maximal effect; tags describe the fitted curve by direction and shape.

Structure (SMILES)	activity, negative = active	Potency
CCc1nc(SCc2cc(=O)c3cc(C)ccc3[nH]2)n[nH]1	inactive: 0.162%	
COC(=O)c1cc(=O)n(Cc2ccco2)c(=Nc2ccc(F)c(Cl)c2)s1		inconclusive: 35.5 µM [inhibitor, single point]
CSc1ccccc1OCc1cc(C(=O)N(C)Cc2ccc(C)o2)no1	inactive: 0.167%	
Cn1nnnc1Sc1ncnc2scc(-c3ccc(Cl)cc3)c12		inconclusive: 6.31 µM [inhibitor, partial curve, poor fit]
O=C1CC(N2CCN(c3ccc(Cl)c(Cl)c3)CC2)C(=O)N1 (stereo unspecified)	inactive: -0.385%	
CC(C)NC(=O)/C(C#N)=C/c1cccc(NC(=O)c2ccccc2Cl)c1		inconclusive: 25.1 µM [inhibitor, single point]
COc1ccc(Nc2nc3cc(-c4sccc4C)sc3c(=O)n2C)cc1OC		inconclusive: 1 µM [inhibitor, full curve, poor fit]
Cc1nnc(SCC(=O)NCc2ccccc2Cl)c2nn(-c3ccccc3)c(C)c12		inconclusive: 25.1 µM [inhibitor, partial curve, poor fit]
C=CCOc1c(OC)cc(/C=N/Nc2cccc(C(=O)O)c2)c(Br)c1Br		inconclusive: 3.55 µM [inhibitor, full curve]
Cc1cc(Cl)n2c(nc3cc(F)c(F)cc32)c1C#N		inconclusive: 5.01 µM [inhibitor, partial curve]
Cc1ccc(Cl)c(NC(=O)COC(=O)c2ccccc2C(=O)c2ccc(Cl)c([N+](=O)[O-])c2)c1Cl		inconclusive: 25.1 µM [inhibitor, single point]
O=c1nc(Nc2ccc(OCc3ccccc3)cc2)sc2ncccc12	inactive: -1.71%	
Cn1c(=O)[nH]c(=O)c2c1nc(SCC(=O)Nc1ccccc1)n2Cc1ccccc1	inactive: -9.87%	
Cc1cccc(Cc2cnc(N3C(=N)SC(C)C3=O)s2)c1 (stereo unspecified)	inactive: -11.8%	
CCn1c2ccccc2c2cc(/C=N/NC(=O)c3ccccc3C)ccc21		inconclusive: 1.78 µM [inhibitor, full curve, poor fit]
Cc1ccc(Cn2ccnc2SCC(=O)Nc2nc3ccccc3s2)cc1	inactive: 4.74%	
NC(=O)COc1ccc(Nc2nnc(-c3ccc(O)cc3)c3ccccc23)cc1	inactive: -2.39%	
COC(=O)CSC1=C(C#N)C(c2ccccc2)CC(=O)N1 (stereo unspecified)		inconclusive: 35.5 µM [inhibitor, single point]
O=C(Nc1cccc(CNCCc2c[nH]c3ccccc23)c1)c1ccccc1Cl		inconclusive: 35.5 µM [inhibitor, single point]
CCCCOC(=O)/C=C\C(=O)NC(N)=O		inconclusive: 28.2 µM [inhibitor, single point]
CC(=O)Nc1cccc(-c2ccnc3c2CC(C)(C(=O)NCc2ccccc2)O3)c1 (stereo unspecified)		inconclusive: 0.562 µM [inhibitor, full curve, poor fit]
COc1ccc(S(=O)(=O)Nc2cccc(-c3ccc4nncn4n3)c2)cc1		inconclusive: 6.31 µM [inhibitor, partial curve, poor fit]
Cc1nc(SCC(=O)c2cccc([N+](=O)[O-])c2)n[nH]1	inactive: -1.6%	
COc1ccc(/C=N/Nc2nc(-c3cccnc3)nc3ccccc23)cc1OC	inactive: -7.04%	

Structure (SMILES)	activity, negative = active	Potency
COc1ccc(-c2cc(NC=O)c3ncc(-c4ccc(OC)c(OC)c4)n3c2)cc1OC		inconclusive: 6.31 µM [inhibitor, partial curve, poor fit]
Cc1c(C(=O)Nc2cccc(-c3nc4ccccc4s3)c2)oc2ccccc12	inactive: 1.39%	
Cc1ccc(CNC(=O)C2CC(c3cc(C(F)(F)F)cc(C(F)(F)F)c3)=NO2)o1 (stereo unspecified)		inconclusive: 12.6 µM [inhibitor, partial curve, poor fit]
COc1cccc(NC(=O)C2CCN(c3nnc(C)c4c(C)n(-c5ccccc5)nc34)CC2)c1	inactive: 1.52%	
COc1ccccc1NS(=O)(=O)c1cccc(C(=O)N/N=C/c2ccc([N+](=O)[O-])o2)c1		inconclusive: 5.01 µM [inhibitor, single point]
COc1ccc(CC(=O)Nc2ccc(-c3noc(-c4ccccc4OC)n3)cc2)cc1	inactive: 1.17%	
Cc1cc(C)cc(-n2c(N)c(C(=O)Nc3c(C)n(C)n(-c4ccccc4)c3=O)c3nc4ccccc4nc32)c1		inconclusive: 6.31 µM [inhibitor, single point]
CCOC(=O)c1[nH]c2ccc(OC)cc2c1NC(=S)N1CCN(c2ccccc2OC)CC1		inconclusive: 7.08 µM [inhibitor, partial curve]
NC(=S)N/N=C\c1c2ccccc2cc2ccccc12		inconclusive: 20 µM [inhibitor, partial curve, poor fit]
Cn1c(-c2ccc(Br)cc2)cnc1NCc1ccc(C#N)cc1	inactive: -11.1%	
COc1cccc(-c2cnc3c(NC(C)=O)cc(-c4ccc(S(C)(=O)=O)cc4)cn23)c1		inconclusive: 25.1 µM [inhibitor, single point]
COc1ccc(CCN2C(=O)c3[nH]nc(-c4ccccc4O)c3C2c2cccc(Cl)c2)cc1 (stereo unspecified)		inconclusive: 2.82 µM [inhibitor, full curve, poor fit]
Cc1cccc(CSc2nc(-c3cccs3)ccc2C#N)c1		inconclusive: 12.6 µM [inhibitor, partial curve]
COc1ccc(C(=O)OCC(=O)c2c[nH]c3ccccc23)cc1OC		inconclusive: 35.5 µM [inhibitor, single point]
CC(=O)Nc1nc(-c2ccccc2)nc(-c2ccccc2OC(C)=O)n1	inactive: -0.576%	
COc1cc(OC)cc(C(=O)c2c(C)c(C#N)c3ccccn23)c1		inconclusive: 1.78 µM [inhibitor, partial curve, poor fit]
COc1ccccc1NC(=S)N(Cc1ccco1)Cc1cc2cc(C)cc(C)c2[nH]c1=O		inconclusive: 2.82 µM [inhibitor, full curve]
CC(=O)Nc1ccc(CN2CCc3c([nH]c4ccccc34)C2c2ccccn2)cc1 (stereo unspecified)		inconclusive: 22.4 µM [inhibitor, single point]
Cc1cccc(CN2Cc3cccc4c3[C@H](C=CC4)CC2=O)c1	inactive: 0.683%	
COC(=O)c1cn(C(=O)c2ccc(OC)c(OC)c2)c2ccccc12		inconclusive: 10 µM [inhibitor, partial curve]
COc1cc(OC)c(/C=C/c2nccc3ccccc23)c(OC)c1		inconclusive: 22.4 µM [inhibitor, single point]
C=CCNC(=O)C(=O)NCCOc1ccccc1Cl		inconclusive: 7.94 µM [inhibitor, partial curve, poor fit]
CC(C)Cc1cc(C(=O)Nc2sc3c(c2C#N)CCC3)no1	inactive: -14.3%	
O=C(/C=C/c1ccccc1Br)c1ccc2c(c1)OCO2		inconclusive: 17.8 µM [inhibitor, single point]

Structure (SMILES)	activity, negative = active	Potency
CC[n+]1ccc(/C=C/c2c[nH]c3ccccc23)cc1		active: 5.01 µM
COc1ccc(C(=O)NC(=S)SCC(=O)O)cc1	inactive: 0.0509%	
COC(=O)N1CCc2c(sc(NC(=O)C3COc4ccccc4O3)c2C(N)=O)C1 (stereo unspecified)		inconclusive: 25.1 µM [inhibitor, single point]
COc1ccc(S(=O)(=O)N2c3cc(Cl)ccc3Oc3nc4ccccc4nc32)cc1		inconclusive: 0.562 µM [inhibitor, full curve, poor fit]
COC1(OC)C=CC(=O)C=C1NC(=O)c1ccccc1OC(C)=O		inconclusive: 3.16 µM [inhibitor, full curve, poor fit]
Cc1ccc(NS(=O)(=O)c2cc(-c3n[nH]c(=O)c4ccccc34)ccc2C)cc1		inconclusive: 3.16 µM [inhibitor, single point]
C[N+]1(CC(=O)c2c3ccccc3cc3ccccc23)CCOCC1	inactive: -5.2%	
CCOC(=O)CSc1c(-c2ccc(Cl)cc2)[nH]c2ccccc12	inactive: -9.92%	
CCOCCCn1c(=O)c2ccccc2n2c(=S)[nH]nc12	inactive: 2.75%	
Cc1ccc(NC(=S)NC(=O)C2CCCCC2)c(Br)c1	inactive: 0.293%	
CO/N=C(\C(=O)O)c1csc(NN=C(C)C)n1	inactive: -1.05%	
Cc1nc2c(-c3ccccc3)c(C)[nH]n2c(=O)c1Cc1ccccc1	inactive: -3.35%	
COc1ccc(C(=O)c2ccc(CC#N)s2)cc1		inconclusive: 17.8 µM [inhibitor, single point]
CCS(=O)(=O)C1=NN2C(=N)/C(=C\c3ccc(OCCOc4cccc(OC)c4)c(OC)c3)C(=O)N=C2S1	inactive: -2.52%	
Cc1cc(C(=O)CN2C(=O)C(=O)N(Cc3ccco3)C2=O)c(C)n1CCc1ccccc1		inconclusive: 4.47 µM [inhibitor, full curve]
C/C(=N\N1C(=O)CSC1=S)c1ccc(Br)cc1	inactive: 0.48%	
O=C(Nc1nnc(SCc2ccc(F)cc2)s1)c1ccc2ncsc2c1	inactive: -0.444%	
CCOCCCNc1nc2c(C)cccn2c(=O)c1/C=C1\SC(=S)N(C(C)CC)C1=O (stereo unspecified)		inconclusive: 17.8 µM [inhibitor, partial curve, poor fit]
Cc1cccc(NC(=O)c2ccc(C(=O)Nc3cccc(C)c3)nc2)c1		inconclusive: 25.1 µM [inhibitor, single point]
COc1cccc(-c2ccc3c(N)c(C(=O)c4ccc(Br)cc4)sc3n2)c1		inconclusive: 10 µM [inhibitor, partial curve, poor fit]
NNC(=O)c1cncn1-c1ccc(F)cc1	inactive: -2.22%	
C=CCN(CC=C)S(=O)(=O)c1ccc2nc(NC(=O)C(C)C)sc2c1		inconclusive: 2.24 µM [inhibitor, full curve, poor fit]
COc1ccc(NC(=O)C2(C)Cc3c(-c4cccc(C(F)(F)F)c4)ccnc3O2)cn1 (stereo unspecified)		inconclusive: 2.51 µM [inhibitor, full curve, poor fit]
